# Reference: the supplement of paper PMC8728848
# The other results are listed elsewhere or left out.
# B1: Sebin2 (Coprinopsis cinerea), A8PE78 (protein)
# chain: MTTPFYAYCHNVQDDNTWRLGLVFANRSTADEWWRAISEATSSIPITKSITRVTPQYYTHDIRVWNMYNFFVDGNIKSISDKFRGRLFITLEYDRSGRGVSVFPPLHIVDHVSGNWYYIRSKTAPHLFWFYDETRNAIYASKEKRTRFKVSIRNPSPQTPKDAIMINSDDVVIHIKESLYVGVDSYLGHIIPTRAYRTFKFGELEGGAIAGIEVAENAEERCSSTFDGASLYFVGPDSSSPGEPWELV
# Key:
# Assay in all cases: glycan array binding signal (z-score within array); higher = stronger binding
# Details in all cases: glycan notation: IUPAC condensed, linker removed
# [1] = target: Neu5Ac(a2-6)Gal(b1-4)GlcNAc(b1-3)Gal(b1-4)GlcNAc(b1-3)Gal(b1-4)GlcNAc(b1-2)Man(a1-3)[Neu5Ac(a2-6)Gal(b1-4)GlcNAc(b1-3)Gal(b1-4)GlcNAc(b1-3)Gal(b1-4)GlcNAc(b1-2)Man(a1-6)]GalNAc
# Summary of the method: (§1)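 Negative Z-scores can be read as non-binding. The Z-score is calculated within each array and then averaged across arrays of one protein sequence at different concentrations or buffers and across linkers. Arrays, 3228 in all, were curated from the Consortium for Functional Glycomics database and kept only where the protein sequence was available.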
# [2] = target: Neu5Ac(a2-6)Gal(b1-4)GlcNAc(b1-3)Gal(b1-4)GlcNAc(b1-3)GalNAc
# Summary of the method: as §1
# [3] = target: Neu5Ac(a2-6)Gal(b1-4)GlcNAc(b1-3)Gal(b1-4)GlcNAc(b1-3)[Neu5Ac(a2-6)Gal(b1-4)GlcNAc(b1-3)Gal(b1-4)GlcNAc(b1-6)]GalNAc
# Summary of the method: as §1
# [4] = target: Neu5Ac(a2-6)Gal(b1-4)GlcNAc(b1-3)Gal(b1-4)GlcNAc(b1-6)[Gal(b1-3)]GalNAc
# Summary of the method: as §1
# [5] = target: Neu5Ac(a2-6)Gal(b1-4)GlcNAc(b1-3)Gal(b1-4)[Fuc(a1-3)]GlcNAc(b1-3)Gal(b1-4)[Fuc(a1-3)]GlcNAc
# Summary of the method: as §1
# [6] = target: Neu5Ac(a2-6)Gal(b1-4)GlcNAc(b1-3)GalNAc
# Summary of the method: as §1
# [7] = target: Neu5Ac(a2-6)Gal(b1-4)GlcNAc(b1-3)[Neu5Ac(a2-6)Gal(b1-4)GlcNAc(b1-6)]GalNAc
# Summary of the method: as §1
# [8] = target: Neu5Ac(a2-6)Gal(b1-4)GlcNAc(b1-6)GalNAc
# Summary of the method: as §1
# [9] = target: Neu5Ac(a2-6)Gal(b1-4)GlcNAc(b1-6)[Gal(b1-3)GlcNAc(b1-3)]Gal(b1-4)Glc
# Summary of the method: as §1
# [10] = target: Neu5Ac(a2-6)Gal(b1-4)GlcNAc(b1-6)[Gal(b1-3)]GalNAc
# Summary of the method: as §1
# [11] = target: Neu5Ac(a2-6)Gal(b1-4)GlcNAc6S
# Summary of the method: as §1
# [12] = target: Neu5Ac(a2-6)GalNAc
# Summary of the method: as §1
# [13] = target: Neu5Ac(a2-6)GalNAc(b1-4)GlcNAc
# Summary of the method: as §1
# [14] = target: Neu5Ac(a2-6)GalNAc(b1-4)GlcNAc6S
# Summary of the method: as §1
# [15] = target: Neu5Ac(a2-6)GlcNAc(b1-4)GlcNAc
# Summary of the method: as §1
# [16] = target: Neu5Ac(a2-6)GlcNAc(b1-4)GlcNAc(b1-4)GlcNAc
# Summary of the method: as §1
# [17] = target: Neu5Ac(a2-8)Neu5Ac
# Summary of the method: as §1
# [18] = target: Neu5Ac(a2-8)Neu5Ac(a2-3)Gal(b1-3)GalNAc(b1-4)[Neu5Ac(a2-3)]Gal(b1-4)Glc
# Summary of the method: as §1
# [19] = target: Neu5Ac(a2-8)Neu5Ac(a2-3)Gal(b1-3)GalNAc(b1-4)[Neu5Ac(a2-8)Neu5Ac(a2-3)]Gal(b1-4)Glc
# Summary of the method: as §1
# [20] = target: Neu5Ac(a2-8)Neu5Ac(a2-3)Gal(b1-4)Glc
# Summary of the method: as §1
# [21] = target: Neu5Ac(a2-8)Neu5Ac(a2-3)Gal(b1-4)GlcNAc
# Summary of the method: as §1
# [22] = target: Neu5Ac(a2-8)Neu5Ac(a2-3)[Gal(b1-3)GalNAc(b1-4)]Gal(b1-4)Glc
# Summary of the method: as §1
# [23] = target: Neu5Ac(a2-8)Neu5Ac(a2-3)[GalNAc(b1-4)]Gal(b1-4)Glc
# Summary of the method: as §1
# [24] = target: Neu5Ac(a2-8)Neu5Ac(a2-8)Neu5Ac
# Summary of the method: as §1
# [25] = target: Neu5Ac(a2-8)Neu5Ac(a2-8)Neu5Ac(a2-3)Gal(b1-4)Glc
# Summary of the method: as §1
# [26] = target: Neu5Ac(a2-8)Neu5Ac(a2-8)Neu5Ac(a2-3)[Gal(b1-3)GalNAc(b1-4)]Gal(b1-4)Glc
# Summary of the method: as §1
# [27] = target: Neu5Ac(a2-8)Neu5Ac(a2-8)Neu5Ac(a2-3)[GalNAc(b1-4)]Gal(b1-4)Glc
# Summary of the method: as §1
# [28] = target: Neu5Ac(a2-8)Neu5Ac(a2-8)Neu5Ac(a2-8)Neu5Ac(a2-3)[GalNAc(b1-4)]Gal(b1-4)Glc
# Summary of the method: as §1
# [29] = target: Neu5Ac(a2-8)Neu5Gc(a2-3)Gal(b1-4)GlcNAc
# Summary of the method: as §1
# [30] = target: Neu5Ac(b2-6)Gal(b1-4)GlcNAc
# Summary of the method: as §1
# [31] = target: Neu5Ac(b2-6)GalNAc
# Summary of the method: as §1
# [32] = target: Neu5Ac9Ac(a2-3)Gal(b1-3)GlcNAc
# Summary of the method: as §1
# [33] = target: Neu5Ac9Ac(a2-3)Gal(b1-4)GlcNAc
# Summary of the method: as §1
# [34] = target: Neu5Ac9Ac(a2-6)Gal(b1-4)GlcNAc
# Summary of the method: as §1
# [35] = target: Neu5Gc(a2-3)Gal(b1-3)GlcNAc
# Summary of the method: as §1
# [36] = target: Neu5Gc(a2-3)Gal(b1-3)[Fuc(a1-4)]GlcNAc
# Summary of the method: as §1
# [37] = target: Neu5Gc(a2-3)Gal(b1-4)Glc
# Summary of the method: as §1
# [38] = target: Neu5Gc(a2-3)Gal(b1-4)GlcNAc
# Summary of the method: as §1
# [39] = target: Neu5Gc(a2-3)Gal(b1-4)GlcNAc(b1-3)Gal(b1-4)GlcNAc(b1-2)Man(a1-3)[Neu5Gc(a2-3)Gal(b1-4)GlcNAc(b1-3)Gal(b1-4)GlcNAc(b1-2)Man(a1-6)]Man(b1-4)GlcNAc(b1-4)GlcNAc
# Summary of the method: as §1
# [40] = target: Neu5Gc(a2-3)Gal(b1-4)[Fuc(a1-3)]GlcNAc
# Summary of the method: as §1
# [41] = target: Neu5Gc(a2-6)Gal(b1-4)GlcNAc
# Summary of the method: as §1
# [42] = target: Neu5Gc(a2-6)GalNAc
# Summary of the method: as §1
# [43] = target: Neu5Gc(a2-8)Neu5Ac(a2-3)Gal(b1-4)GlcNAc
# Summary of the method: as §1
# [44] = target: Neu5Gc(a2-8)Neu5Gc(a2-3)Gal(b1-4)GlcNAc
# Summary of the method: as §1
# [45] = target: Neu5Gc(a2-8)Neu5Gc(a2-3)Gal(b1-4)GlcNAc(b1-3)Gal(b1-4)GlcNAc
# Summary of the method: as §1
# [46] = target: Neu5Gc(a2-8)Neu5Gc(a2-6)Gal(b1-4)GlcNAc
# Summary of the method: as §1
# [47] = target: Neu5Gc(b2-6)Gal(b1-4)GlcNAc
# Summary of the method: as §1
binder,measurement,setting,value
B1,glycan array binding signal (z-score),[1],0.551
same,glycan array binding signal (z-score),[2],-0.608
same,glycan array binding signal (z-score),[3],0.043
same,glycan array binding signal (z-score),[4],0.04
same,glycan array binding signal (z-score),[5],-0.035
same,glycan array binding signal (z-score),[6],-0.32
same,glycan array binding signal (z-score),[7],0.423
same,glycan array binding signal (z-score),[8],0.544
same,glycan array binding signal (z-score),[9],-0.101
same,glycan array binding signal (z-score),[10],0.518
same,glycan array binding signal (z-score),[11],-0.323
same,glycan array binding signal (z-score),[12],-0.525
same,glycan array binding signal (z-score),[13],-0.487
same,glycan array binding signal (z-score),[14],-0.011
same,glycan array binding signal (z-score),[15],0.189
same,glycan array binding signal (z-score),[16],-0.675
same,glycan array binding signal (z-score),[17],-0.211
same,glycan array binding signal (z-score),[18],0.353
same,glycan array binding signal (z-score),[19],0.26
same,glycan array binding signal (z-score),[20],-0.726
same,glycan array binding signal (z-score),[21],-0.654
same,glycan array binding signal (z-score),[22],-0.099
same,glycan array binding signal (z-score),[23],0.144
same,glycan array binding signal (z-score),[24],0.72
same,glycan array binding signal (z-score),[25],-0.065
same,glycan array binding signal (z-score),[26],-0.094
same,glycan array binding signal (z-score),[27],0.32
same,glycan array binding signal (z-score),[28],0.103
same,glycan array binding signal (z-score),[29],-0.304
same,glycan array binding signal (z-score),[30],-0.437
same,glycan array binding signal (z-score),[31],-0.313
same,glycan array binding signal (z-score),[32],0.046
same,glycan array binding signal (z-score),[33],-0.32
same,glycan array binding signal (z-score),[34],-0.168
same,glycan array binding signal (z-score),[35],-0.134
same,glycan array binding signal (z-score),[36],-0.018
same,glycan array binding signal (z-score),[37],0.418
same,glycan array binding signal (z-score),[38],0.158
same,glycan array binding signal (z-score),[39],0.042
same,glycan array binding signal (z-score),[40],-0.127
same,glycan array binding signal (z-score),[41],0.134
same,glycan array binding signal (z-score),[42],-0.242
same,glycan array binding signal (z-score),[43],-0.359
same,glycan array binding signal (z-score),[44],-0.571
same,glycan array binding signal (z-score),[45],-0.327
same,glycan array binding signal (z-score),[46],-0.567
same,glycan array binding signal (z-score),[47],0.148
